The campaign covered roughly 360,000 compounds. About 6,000 (1.7%) were called active. Inconclusive results, whose numbers are uncertain, are shown with a selection of clear calls. The call rests on the fitted dose curve; in most records, active means well fitted cell-killing curve with a large enough effect; inconclusive means small, poorly fitted or top-dose-only effect, or effect the other way; inactive means flat fitted curve, though single readings scatter. Potencies of inconclusive entries are left out as doubtful fits.
experiment: qHTS for induction of synthetic lethality in tumor cells producing 2HG: qHTS for the HT-1080-NT fibrosarcoma cell line; conditions: HT-1080-NT fibrosarcoma viability, CellTiter-Glo ATP luminescence, 48 h; activity, negative = less viability: at 46.1 µM (top of the series) unless noted;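 further: NT is the 2HG producing partner of a matched IDH1 knockdown line; nearly all actives have a fitted effect of over 55% in size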;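 on activity, negative = less viability: 0% = DMSO-treated cells and -100% = media-only wells without cells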
Outline: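 A 48-hour cytotoxicity screen used HT-1080-NT cells plated 2 hours before compound delivery. ATP-based CellTiter-Glo luminescence measured viability, normalized to DMSO and no-cell controls.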
Potency means the concentration at half of the fitted maximal effect; tags describe the fitted curve by direction and shape.

**Q.** For CN1CCN(C(=O)CCN2C(=O)/C(=C/c3ccccc3Cl)SC2=S)CC1, which Potency is on record?
**A.** inconclusive [cytotoxic, single point]

**Q.** With CN(C)c1ccc(C(CNS(=O)(=O)c2ccc(F)c(F)c2)c2c[nH]c3ccccc23)cc1 (stereo not drawn) as the compound, how does the Potency read?
**A.** inconclusive [cytotoxic, single point]

**Q.** With O=C1N/C(=N/S(=O)(=O)c2ccccc2)S/C1=C/c1cccnc1 as the compound, how does the Potency read?
**A.** inconclusive [cytotoxic, single point]

**Q.** With CCCCCCCCN1C(=O)[C@H](CC(=O)NCc2cccs2)C[C@@]2(C(=O)OC)CC(C)(C)CC=C12 as the compound, how does the Potency read?
**A.** inconclusive [cytotoxic, single point]

**Q.** Which Potency does the source give for COc1ccc(NC(=O)C[C@H]2C(=O)N(C3CCCCC3)C[C@@H]2c2ccc(OC)cc2)cc1 here?
**A.** inactive

**Q.** Which Potency does the source give for COC(=O)[C@]12CCCCC=C1N(CCC1=CCCCC1)C(=O)[C@H](CC(=O)NCc1cccc3ccccc13)C2 here?
**A.** inconclusive [cytotoxic, single point]

**Q.** Which Potency does the source give for CCn1c(SCC(=O)Nc2ccc(NC(=O)c3ccco3)cc2)nnc1-c1cccs1 here?
**A.** inconclusive [cytotoxic, single point]

**Q.** With O=C(NS(=O)(=O)c1ccc(NC(=O)C2CCCO2)cc1)c1ccccc1 (stereo not drawn) as the compound, how does the Potency read?
**A.** inactive

**Q.** With CC(C)c1ccc(N2C(=O)CSC23C(=O)N2CCCc4cccc3c42)cc1 (stereo not drawn) as the compound, how does the Potency read?
**A.** inactive

**Q.** Which Potency does the source give for CC1(C)OC(=O)C2=C(C[C@@H](CCC(F)(F)F)O[C@H]2c2ccc(F)cc2)O1 here?
**A.** inactive

**Q.** With CCOC(=O)/C=C(\C)Sc1cc(=O)oc2ccccc12 as the compound, how does the Potency read?
**A.** active: 14.6 µM

**Q.** For Cn1c(OCc2ccc3c(c2)OCO3)nc2c1c(=O)n(Cc1cccc(Cl)c1)c(=O)n2C, which Potency is on record?
**A.** inactive

**Q.** With CCOc1cc(C(=O)Nc2ccc(S(=O)(=O)Nc3cnc4ccccc4n3)cc2)cc(OCC)c1OCC as the compound, how does the Potency read?
**A.** inconclusive [cytotoxic, single point]

**Q.** With COc1ccc(N2CC(C(=O)Nc3cc(C(F)(F)F)ccc3N3CCCC3)CC2=O)c(OC)c1 (stereo not drawn) as the compound, how does the Potency read?
**A.** active: 20.6 µM

**Q.** With CCOC(=O)/C(=N\Nc1cc(Cl)ccc1Cl)N1CCN(C)CC1 as the compound, how does the Potency read?
**A.** active: 16.4 µM

**Q.** For COc1ccc(Cc2nnc(N/N=C/c3ccc(O)cc3)[nH]c2=O)cc1OC, which Potency is on record?
**A.** inconclusive [cytotoxic, partial curve]

**Q.** Which Potency does the source give for Cc1ccc(C)c2[nH]c(=O)c(CN(CCN3CCCC3)C(=O)Nc3ccc(F)cc3)cc12 here?
**A.** active: 16.4 µM

**Q.** For COc1ccc(C(=O)N/N=C/c2ccc(OC)c(OS(=O)(=O)c3ccccc3)c2)cc1, which Potency is on record?
**A.** inactive

**Q.** Which Potency does the source give for COc1cccc(/C=N/NC(=O)c2ccc3nc[nH]c3c2)c1O here?
**A.** inconclusive [cytotoxic, single point]

**Q.** Which Potency does the source give for O=C(Cc1c(F)cccc1Cl)Nc1nccs1 here?
**A.** inactive

**Q.** For CCOc1cc(C(=O)N=c2sccn2C)ccc1OC(F)F, which activity, negative = less viability is on record?
**A.** inconclusive: 30.1%

**Q.** For COc1cccc(Nc2nc(N)c([N+](=O)[O-])c(NCc3ccco3)n2)c1, which Potency is on record?
**A.** inconclusive [cytotoxic, single point]

**Q.** Which Potency does the source give for CC(=O)Nc1ccc(C(=O)N2CCCC2)cc1 here?
**A.** inactive

**Q.** Which Potency does the source give for CCNC(=S)N1N=C2c3ccccc3CCC2C1c1ccc(F)cc1 (stereo not drawn) here?
**A.** inconclusive [cytotoxic, partial curve]

**Q.** For CC1CCN(C(=O)c2ccc(S(=O)(=O)Cc3cc(F)ccc3F)c([N+](=O)[O-])c2)CC1, which Potency is on record?
**A.** active: 11.6 µM

**Q.** Which Potency does the source give for CC(C)(C)c1cc(C(=O)N/N=C/c2ccccc2O)n(-c2ccccc2)n1 here?
**A.** inconclusive [cytotoxic, full curve]

**Q.** For O=C(COc1ccc(S(=O)(=O)N2CCCC2)cc1)N1CCCC1, which Potency is on record?
**A.** inactive

**Q.** With CCc1ccccc1NC(=O)Cn1cccc1C1=NC(c2ccccc2)CO1 (stereo not drawn) as the compound, how does the Potency read?
**A.** inconclusive [cytotoxic, single point]

**Q.** For CC(NS(=O)(=O)c1cccc(Cl)c1)C(=O)Nc1ccc(-c2nc3ccccc3s2)cc1 (stereo not drawn), which activity, negative = less viability is on record?
**A.** inconclusive: -31% [cytotoxic]

**Q.** For COc1ccc(C#Cc2cnc(Cl)c3cncnc23)cc1OC, which Potency is on record?
**A.** inconclusive [cytotoxic, single point]

**Q.** For CCCCCc1c(-c2ccccc2F)ncn1CCc1ccccc1OC, which Potency is on record?
**A.** inconclusive [cytotoxic, single point]

**Q.** Which Potency does the source give for O=C(N/N=C/c1ccc[nH]1)c1cccnc1 here?
**A.** inactive

**Q.** With CC(C)(C)c1csc(NC(=O)c2ccc(Cl)s2)n1 as the compound, how does the Potency read?
**A.** inconclusive [cytotoxic, partial curve]

**Q.** For COc1ccc(CNC(=O)CSc2ncnc3nc[nH]c23)cc1, which Potency is on record?
**A.** inactive

**Q.** With C/C(=N\NS(=O)(=O)c1ccccc1)c1ccc2c(c1)OCO2 as the compound, how does the Potency read?
**A.** inactive

**Q.** With COc1ccc(NC(=O)c2ccc(NC(=O)CN3CCN(c4ccc(O)cc4)CC3)cc2)cc1 as the compound, how does the Potency read?
**A.** inactive

**Q.** With COc1cccc(-c2cc(C(=O)NCC3CCCO3)c3ccccc3n2)c1 (stereo not drawn) as the compound, how does the Potency read?
**A.** inactive

**Q.** With COc1cc2c(cc1OC)CN(CCC(=O)c1ccc(Br)cc1)CC2 as the compound, how does the Potency read?
**A.** active: 25.9 µM

**Q.** Which Potency does the source give for Cc1ccc(CNC(=O)C2CCN(S(=O)(=O)c3ccc4c(c3)CC(C)N4C(=O)C3CC3)CC2)cc1 (stereo not drawn) here?
**A.** inconclusive [cytotoxic, single point]

**Q.** Which Potency does the source give for C[C@@H]1CC=C[C@@H]2[C@H]1C(=O)N(Cc1ccccc1)[C@H]2c1ccccc1Br here?
**A.** inconclusive [cytotoxic, single point]

**Q.** Which Potency does the source give for COc1ccc(CN2C[C@@H](CO)O[C@@H](n3cnc4c(NCc5ccncc5)ncnc43)C2)cc1 here?
**A.** inactive

**Q.** For CC1CCN(c2ccc(-c3cccs3)nn2)CC1, which Potency is on record?
**A.** inconclusive [cytotoxic, single point]

**Q.** With C/C(Cl)=C/Cn1c(SC(C)C)nc2c1c(=O)[nH]c(=O)n2C as the compound, how does the Potency read?
**A.** inactive

**Q.** With C/C=C(/C)C(=O)O[C@@H]1c2c(ccc3ccc(=O)oc23)O[C@@H]1C(C)(C)OC(=O)/C(C)=C\C as the compound, how does the Potency read?
**A.** inconclusive [cytotoxic, single point]

**Q.** Which Potency does the source give for CCc1ccc(OCC(=O)NNC(=O)c2cc(S(=O)(=O)N3CCOCC3)ccc2N2CCCC2)cc1 here?
**A.** inactive

**Q.** For Cc1cc(CNC(=O)c2cccnc2Cl)c2ccccc2n1, which Potency is on record?
**A.** inactive

**Q.** With CC1CC(C)CN(Cc2nc(N)nc(Nc3ccc4ccccc4c3)n2)C1 (stereo not drawn) as the compound, how does the Potency read?
**A.** inconclusive [cytotoxic, single point]

**Q.** For CC(C)c1ccc(-c2cc(C(=O)NN3CCN(C)CC3)c3ccccc3n2)cc1, which Potency is on record?
**A.** inconclusive [cytotoxic, single point]

**Q.** For O=C(CCC(=O)Nc1cccc([N+](=O)[O-])c1)N/N=C/c1cccs1, which Potency is on record?
**A.** inactive

**Q.** For Cn1c(=O)c2c(nc(NCCO)n2C)n(C)c1=O, which Potency is on record?
**A.** inconclusive [rising, partial curve]

**Q.** For Cc1ccc(-n2ncc(C(=O)Nc3ccc(Cl)cc3)c2C2CCNCC2)cc1C, which Potency is on record?
**A.** active: 20.6 µM

**Q.** Which Potency does the source give for Cc1onc(-c2ccccc2)c1C(=O)OCC(=O)Nc1cc(S(=O)(=O)N2CCOCC2)ccc1Cl here?
**A.** inconclusive [cytotoxic, partial curve]

**Q.** For Cc1ccc(NC(=O)c2ccc(CN3CCc4ccccc4C3)cc2)cc1, which Potency is on record?
**A.** inconclusive [cytotoxic, single point]

**Q.** For CN1CCC(=NNC(=O)CN(c2ccc([N+](=O)[O-])cc2)S(=O)(=O)c2ccccc2)CC1, which Potency is on record?
**A.** inconclusive [cytotoxic, partial curve]

**Q.** With O=C(CN1CCCC1)N1CCCc2ccccc21 as the compound, how does the Potency read?
**A.** inconclusive [rising, single point]

**Q.** With CCOC(=O)C1CCCN(Cc2ccc(O)c(OC)c2)C1 (stereo not drawn) as the compound, how does the Potency read?
**A.** inactive

**Q.** Which Potency does the source give for CCn1cc(CN2CCCC(C(=O)Nc3cccc(-c4cc5ccccc5[nH]4)c3)C2)c(C)n1 (stereo not drawn) here?
**A.** active: 20.6 µM

**Q.** For Cc1c(NC(=O)CN2C(=O)NC(C)(c3ccc(OC(F)F)cc3)C2=O)c(=O)n(-c2ccccc2)n1C (stereo not drawn), which Potency is on record?
**A.** inactive

**Q.** Which Potency does the source give for CCN1CCN(c2ncnc3scc(-c4ccc(C)c(C)c4)c23)CC1 here?
**A.** inconclusive [cytotoxic, partial curve, poor fit]

**Q.** With COc1cc2c(cc1OC)C(=O)C(Br)CC2 (stereo not drawn) as the compound, how does the Potency read?
**A.** inconclusive [cytotoxic, single point]

**Q.** Which Potency does the source give for COc1ccc(/C=N/NC(=O)c2ccc(CN3C(=O)c4cccc5cccc3c45)cc2)cc1O here?
**A.** inconclusive [cytotoxic, single point]

**Q.** With C=CCNC(=O)C1CC1(c1cccc(C)c1)c1cccc(C)c1 (stereo not drawn) as the compound, how does the Potency read?
**A.** inconclusive [cytotoxic, single point]

**Q.** Which Potency does the source give for CN(C)C(=O)c1cccc(-c2cnc3c(NC=O)cc(-c4ccc(F)cc4)cn23)c1 here?
**A.** inconclusive [cytotoxic, single point]

**Q.** Which Potency does the source give for Cn1nc(C(F)(F)F)cc1C(=O)NC1CCCCCC1 here?
**A.** inactive

**Q.** Which Potency does the source give for CCCCCNC(=O)C(c1cccc2ccccc12)n1c(=O)c(-c2ccco2)nc2ccccc21 (stereo not drawn) here?
**A.** inconclusive [cytotoxic, single point]

**Q.** For CCn1c(CC(=O)Nc2ccc(F)cc2)nnc1SCC(=O)N1CCOCC1, which Potency is on record?
**A.** inactive

**Q.** For N=c1c2c(n(Cc3ccc(Br)cc3)c3c1CCC3)CCCC2, which Potency is on record?
**A.** active: 20.6 µM

**Q.** With CCC1CCCCN1S(=O)(=O)c1ccc2c(c1)CCN2C(=O)C1CCC1 (stereo not drawn) as the compound, how does the Potency read?
**A.** inconclusive [cytotoxic, single point]

**Q.** For CCCCC(=O)N/N=C/c1ccc(Sc2cccc3cccnc23)o1, which Potency is on record?
**A.** inconclusive [cytotoxic, single point]

**Q.** For CNc1c(C(=O)O)ccc2c1C(=O)c1ccccc1C2=O, which Potency is on record?
**A.** inconclusive [cytotoxic, single point]

**Q.** With Cc1cccc(C)c1NC(=O)C1(C)CSCC(=O)N1CCOc1ccccc1 (stereo not drawn) as the compound, how does the Potency read?
**A.** inactive

**Q.** Which Potency does the source give for COc1cccc(CNC(=S)NC2CC2)c1 here?
**A.** inactive

**Q.** Which Potency does the source give for CC1CCCN(C(=O)c2ccc3ncsc3c2)C1 (stereo not drawn) here?
**A.** inactive
